Measurements from the RNAGym collection of RNA variant scans (doi:10.1073/pnas.2313332121).
This sample is rich in variants without activity.

B1: TPR 5TU (parent)
chain: GGAUCUUCUCGAUCUAACAAAAAAGACAAAUCUGCCACAAAGCUUGAGAGCAUCUUCGGAUGCAGAGGCGGCAGCCUUCGGUGGCGCGAUAGCGCCAACGUUCUCAACUAUGACACGCAAAACGCGUGCUCCGUUGAAUGGAGUUUAUCAUG

Variants of: B1
Assay: polymerase ribozyme fitness, log enrichment relative to wild type (log ratio); higher = more active; in vitro selection for triplet polymerase activity
Summary of the method: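 A single round of triplicate in vitro selection, including frozen incubation at −7 °C, was applied to PCR-built, transcribed mutant libraries of each subunit of a heterodimeric triplet polymerase ribozyme. Illumina sequencing of input and output libraries retained genotypes with ≥10 input reads and ≥1 read per output. Fitness is the base-2 logarithm of genotype enrichment divided by wild-type enrichment, from inverse-variance-weighted replicate averages.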

Polymerase ribozyme fitness (log ratio), ≤ -4.2:
GGAUCUUCUCGAUCUAACAAAAAAGACAAAUCUGCCACAAAGCUUGAGAACAUCUUCGGAUGCAGAGGCGGCAGCGUUCGGUGGCGCGAUAGCGCGAAAGUUCUCAACUUUGACACGCAAAACGCGUGCUCCGUUGGAUGGAGUUUAUCAUG [G50A C76G C96G C99A A110U A137G]
GGAUCUUCUCGAUCUAACAAAAAAGACAAAUCUGCCACAAAGCUUGAGAACAUCUUCGGAUGCAGAGGCGGCAGCCUUUGGUGGCGCGAUAGCGCCAACGUUCUCAACUAUGACACGCAAAACGCGUGCUCCGUUGAAUGGAGUUUAUCAUG [G50A C79U]
GGAUCUUCUCGAUCUAACAAAAAAGACAAAUCUGCCACAAAGCUUGAGAACAUCUUCGGAUGCAGAGGCGGCAGCCUUUGGUGGCGCGAUAGCGCCAACGUUCUCAACUAUGACACGCAAAACGCGUGCUCCGUUGAGUGGAGUUUAUCAUG [G50A C79U A138G]
GGAUCUUCUCGAUCUAACAAAAAAGACAAAUCUGCCACAAAGCUUGAGAACAUCUUCGGAUGCAGAGGCGGCAGCCUUUUGUGGCGCGAUAGCGCCAACGUUCUCAACUAUGACACGCAAAACGCGUGCUCCGUUGAACGGAGUUUAUCAUG [G50A C79U G80U U139C]
GGAUCUUCUCGAUCUAACAAAAAAGACAAAUCUGCCACAAAGCUUGAGAACAUCUUCGGAUGCAGAGGCGGCAGCCUUCGGUGGAGCAAUAGCGCCAACGUUCUCAACUAUGACACGCAAGACGCGUGCUCCGUUGAAUGGAGUUUAUCAUG [G50A C85A G88A A121G]
GGAUCUUCUCGAUCUAACAAAAAAGACAAAUCUGCCACAAAGCUUGAGAACAUCUUCGGAUGCAGAGGCGGCAGCCUUCGGUGGGGCGAUAGCGCCAACGUUCUCAACGAUGACACGCAAAACGCCUGCUCCGUUGAAUGGAGUUUAUCAUG [G50A C85G U109G G126C]
GGAUCUUCUCGAUCUAACAAAAAAGACAAAUCUGCCACAAAGCUUGAGAACAUCUUCGGAUGCAGAGGCGGCAGCCUUCGGUGGUGCGAGAGCGCCAACGUUCUAAACUAUGACACGCAAAACGCGUGCUCCGUUGAAUGUAGUUUAUCAUG [G50A C85U U90G C105A G141U]
GGAUCUUCUCGAUCUAACAAAAAAGACAAAUCUGCCACAAAGCUUGAGAACAUCUUCGGAUGCAGAGGCGGCAGCCUUCGGUGGCGAGAUAGCGCCAACGUUCUCAUCUAUGACACGCAAAACGCGUGCUACGUUGAAUGGAGUUUAUCAUG [G50A C87A A107U C131A]
GGAUCUUCUCGAUCUAACAAAAAAGACAAAUCUGCCACAAAGCUUGAGAACAUCUUCGGAUGCAGAGGCGGCAGCCUUCGGUGGCGUGAUAGCGCCAACGUUCUCAACUAUGACACGCAAAACGCGUUCACCGUUGAGUGGAGUUUAUCAUG [G50A C87U G128U U130A A138G]
GGAUCUUCUCGAUCUAACAAAAAAGACAAAUCUGCCACAAAGCUUGAGAACAUCUUCGGAUGCAGAGGCGGCAGCCUUCGGUGGCGCGAUAGAGCCGAUGUUCUCAACGAUGACACGCAAAACGCGUGCUCCGUUGAAUGGAGUUUAUCAUG [G50A C93A A97G C99U U109G]
GGAUCUUCUCGAUCUAACAAAAAAGACAAAUCUGCCACAAAGCUUGAGAACAUCUUCGGAUGCAGAGGCGGCAGCCUUCGGUGGCGCGAUAGAGCCAACGUUCUCAACUAUGACACGCAAAGCGCGUGCUCCGUUGAAUGGAGUUUAUCAUG [G50A C93A A122G]
GGAUCUUCUCGAUCUAACAAAAAAGACAAAUCUGCCACAAAGCUUGAGAACAUCUUCGGAUGCAGAGGCGGCAGCCUUCGGUGGCGCGAUAGGGCCAACGUUCUCAACUAUGACACGCAAAACGCGUGCUCCGUUGAAUGGAGUUUAUCAUG [G50A C93G]
GGAUCUUCUCGAUCUAACAAAAAAGACAAAUCUGCCACAAAGCUUGAGAACAUCUUCGGAUGCAGAGGCGGCAGCCUUCGGUGGCGCGAUAGUGCCAACGUACUCAACUAUGACACGCAAACCGCGUGCUCCGUUGAGUGGAGUUUAUCAUU [G50A C93U U102A A122C A138G G152U]
GGAUCUUCUCGAUCUAACAAAAAAGACAAAUCUGCCACAAAGCUUGAGAACAUCUUCGGAUGCAGAGGCGGCAGCCUUCGGUGGCGCGAUAGCGACAACGUUCUCAACUAUGACACGCAAAACGCGUGCUCCGUUAAACGGAGUUUAUCAUG [G50A C95A G136A U139C]
GGAUCUUCUCGAUCUAACAAAAAAGACAAAUCUGCCACAAAGCUUGAGAACAUCUUCGGAUGCAGAGGCGGCAGCCUUCGGUGGCGCGAUAGCGCCAACGUUCUCAAAUAUGACACGCAAAACUCGUGCUCCGUUGAAUGGAGUUUAGCAUG [G50A C108A G124U U148G]
GGAUCUUCUCGAUCUAACAAAAAAGACAAAUCUGCCACAAAGCUUGAGAACAUCUUCCGAUGCAGAGGCGGCAGCCUUCGGUAGCGCGGUAGCGCCAACGUUCUCAACUAUGACACACAAAACGCGUGCUCCGUUGAAUGGAGUUUAUCAUG [G50A G58C G83A A89G G117A]
GGAUCUUCUCGAUCUAACAAAAAAGACAAAUCUGCCACAAAGCUUGAGAACAUCUUCGGAUACAGAGGCGGCAGUCUUCGGUGGCGCGAUAGCGCCCACGUUCUGAACUAUGACACGCAAAACGCGUGCUCCGUUGAAUGGAGUUUAUCAUG [G50A G62A C75U A97C C105G]

Polymerase ribozyme fitness (log ratio), -3.59:
GGAUCUUCUCGAUCUAACAAAAAAGACAAAUCUGCCACAAAGCUUGAGAACAUCUUCGGAUGCAGAGGCGGCAGCCUUCGGUGGAGCGAUAGCGCCAACGUUCUCAACUAUGACACGCAAAACGCGUGCUCCGUUGAAUGGAGUUUAUCAUG [G50A C85A]

Polymerase ribozyme fitness (log ratio), -3.71:
GGAUCUUCUCGAUCUAACAAAAAAGACAAAUCUGCCACAAAGCUUGAGAACAUCUUCGGAUGCAGAGGCGGCAGCCUUCGGUGGCGCGAUAGUGCCAACGUUCUCAACUAUGACACGCAAAACGCGUGCUCCGUUGAAUGGUGUUUAUCAUG [G50A C93U A142U]
